# Experimental data as given in publication PMC4336329 (PLoS ONE, 2015).
# Among all 310,000 compounds or so, about 14,000 (4.5%) showed an effect of 50% or more. The effect is printed as a negative number. Some of the results follow.
# Target: human ether-à-go-go-related gene (hERG) potassium channel (human, UniProt Q12809)
# Experiment: primary screen, population patch clamp on CHO cells stably expressing hERG
# 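Note: peak tail current of the secondary pulse compared with the same well before compound.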
# Chain of human ether-à-go-go-related gene (hERG) potassium channel (Q12809 whole entry, looked up): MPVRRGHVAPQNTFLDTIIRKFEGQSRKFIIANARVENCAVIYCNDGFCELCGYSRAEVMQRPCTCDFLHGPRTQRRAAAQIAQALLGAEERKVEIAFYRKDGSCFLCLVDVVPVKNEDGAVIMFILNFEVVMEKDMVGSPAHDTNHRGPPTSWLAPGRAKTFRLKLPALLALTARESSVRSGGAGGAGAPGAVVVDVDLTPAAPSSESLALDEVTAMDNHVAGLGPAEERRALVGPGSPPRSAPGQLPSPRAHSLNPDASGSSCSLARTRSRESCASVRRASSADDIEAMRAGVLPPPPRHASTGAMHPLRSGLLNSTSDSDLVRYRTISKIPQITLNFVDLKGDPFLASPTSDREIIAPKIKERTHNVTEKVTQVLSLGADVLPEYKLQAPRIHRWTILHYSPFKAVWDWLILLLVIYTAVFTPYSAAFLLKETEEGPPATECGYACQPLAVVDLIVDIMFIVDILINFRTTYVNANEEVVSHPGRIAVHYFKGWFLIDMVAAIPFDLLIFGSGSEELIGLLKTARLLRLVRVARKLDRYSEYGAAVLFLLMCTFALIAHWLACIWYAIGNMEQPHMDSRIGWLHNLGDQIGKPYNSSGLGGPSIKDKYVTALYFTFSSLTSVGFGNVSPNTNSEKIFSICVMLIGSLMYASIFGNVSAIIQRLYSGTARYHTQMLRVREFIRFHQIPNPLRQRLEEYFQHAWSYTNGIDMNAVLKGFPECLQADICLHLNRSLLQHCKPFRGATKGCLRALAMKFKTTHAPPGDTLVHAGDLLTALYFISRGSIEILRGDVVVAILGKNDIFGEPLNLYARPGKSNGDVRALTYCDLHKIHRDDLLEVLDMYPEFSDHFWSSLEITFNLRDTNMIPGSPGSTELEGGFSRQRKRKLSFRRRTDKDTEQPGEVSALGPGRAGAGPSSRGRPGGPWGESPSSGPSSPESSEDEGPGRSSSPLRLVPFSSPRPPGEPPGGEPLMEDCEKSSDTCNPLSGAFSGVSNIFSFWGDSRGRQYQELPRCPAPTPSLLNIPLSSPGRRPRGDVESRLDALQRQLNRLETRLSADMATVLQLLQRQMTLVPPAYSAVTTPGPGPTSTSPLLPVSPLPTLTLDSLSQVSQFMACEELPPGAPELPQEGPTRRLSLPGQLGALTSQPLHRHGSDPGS
row,Compound,"hERG current change (%, negative = inhibition) at 10uM [%]"
1,Clc1cccc(CNCC2CCCO2)c1Cl (centres unmarked),-20.9
2,Cc1c(-c2ccccc2)oc2c(C(=O)OCC(=O)Nc3ccc(F)cc3)cccc2c1=O,-3.13
3,FC(c1nc2ccccc2[nH]1)C(F)(F)F (centres unmarked),27.9
4,CCOc1ccccc1-c1nc2c(C(C)(C)C)nn(C)c2c(=O)[nH]1,-1.87
5,OCc1cccc[n+]1CCc1ccccc1.[Br-],21.8
6,Cc1ccccc1S(=O)(=O)Cc1ccc(C(=O)NC2CCCCCC2)o1,-31.9
7,CCN(CC)S(=O)(=O)c1ccc(-c2cn3ccc(C)cc3n2)cc1,7.52
8,CC12CCC(=O)N1C(C(=O)Nc1ccc(F)c(F)c1F)CS2 (centres unmarked),11
9,N#CC1=C(SCC(N)=O)NC(=O)CC1c1ccccc1Cl (centres unmarked),0.122
10,O=C(c1cc(-c2ccc3c(c2)OCO3)on1)N1CCN(c2ccc(F)cc2)CC1,-10.1
11,N#Cc1ccccc1OCC(=O)N(C1CCCCC1)C1CCS(=O)(=O)C1 (centres unmarked),2.42
12,C=CCOC(=O)c1c(C)nc2cc3c(cc2c1C)OCO3.Cl,-13.6
13,Cc1ccc(C)c(N2CCN(C(=O)CN3C(=O)c4ccccc4C3=O)CC2)c1,-19.1
14,COc1cc2c(C(=O)NCc3ccc4c(c3)OCO4)cn(C)c(=O)c2cc1OC,13.1
15,COC(=O)c1ccc(NS(=O)(=O)c2cc(-c3cc(C)no3)ccc2OC)cc1,4.72
16,Cc1cccc(-c2oc3ccccc3c2C#CCCCCO)c1,20.2
17,CCCCN(CC)CCCNC(=O)c1cc2c(=O)n(C)c3ccccc3c2n1C,-42.1
18,CCOC(=O)C1(Cc2cccc(F)c2)CCN(C(=O)c2cnc(C)cn2)CC1,-22.6
19,CC(Sc1n[nH]c(N)n1)C(=O)Nc1ccc(Cl)cn1 (centres unmarked),18.6
20,C/C(=N\NS(=O)(=O)c1ccccc1)c1ccccc1,22.1
21,OC(CSc1ccc(F)cc1)CN1CCN(c2ccccc2)CC1 (centres unmarked),-41.7
22,NC(=O)C1CCCN(C(=O)c2ccc3c(c2)NC(=O)CS3)C1 (centres unmarked),11.2
23,CCCN(CCC)CC(O)Cn1c2ccccc2c2ccccc21 (centres unmarked),-32.1

row,Compound,"hERG current change (%, negative = inhibition) at 10uM [%]"
1,Cc1ccc(NS(=O)(=O)c2ccc3c(c2)NC(=O)C(C)C(=O)N3)c(Br)c1 (centres unmarked),17.3
2,CCn1ccnc1CN(C)Cc1nc(CCC(C)C)no1,4.23
3,CCn1c(CSc2nncn2-c2ccc(OC)cc2)nc2cc(S(=O)(=O)N(C)C)ccc21,-14.5
4,Cc1nn(-c2ccccc2)c2sc(C(=O)NC3CCCCC3)cc12,-11.8
5,Cc1ccc2[nH]c(=O)c(C(c3nnnn3C(C)(C)C)N3CCN(C(=O)c4ccco4)CC3)cc2c1 (centres unmarked),-24.8
6,COc1ccc(C(=O)NNC(=S)Nc2ccccc2)cc1,14
7,COC(=O)COc1ccc(C2Nc3c(Cl)ccc(C(=O)O)c3C3C=CCC32)cc1 (centres unmarked),12.9
8,CNc1snc(C)c1C(=O)OC(C)C(=O)c1ccc(F)cc1 (centres unmarked),-18.6
9,O=c1[nH]c(-c2ccccc2)nc(-c2ccccc2)c1Cl,-0.306
10,CCn1cc(SCC(=O)NC2CCCC2)c2ccccc21,-4.12
11,Cc1cc(-c2cccs2)c2c(N)c(C(=O)c3ccc4c(c3)OCO4)sc2n1,5.2
12,CC(C)(C)NC(=O)CCN(/N=C/c1ccc([N+](=O)[O-])o1)C1=NS(=O)(=O)c2ccccc21,1.37
13,CC(=O)Cn1ncc(N2CCOCC2)c(Br)c1=O,17.6
14,COc1ccc(CNC(=O)C2CCC(CNS(=O)(=O)c3cccc4cccnc34)CC2)cc1 (centres unmarked),0.14
15,COc1ccc(Cn2c(=O)[nH]c3cc(C(=O)N4CCN(c5ccc(C(C)=O)cc5)CC4)ccc3c2=O)cc1,9.1
16,CCCn1c(=O)c2c(c3ccccc31)OCC(=O)N2,12.5
17,COc1cc(/C=N/NC(=O)c2ccncc2)ccc1OCc1cnc(Cl)s1,2.43
18,CC1C2=C(CC(C)(C)CC2=O)NC2=C1C(=O)CC(C)(C)C2,30.4
19,O=C(OCC(=O)N1CCOCC1)c1ccc2ccccc2c1,-17.9
20,Cn1c(/C(C#N)=C/c2ccc(O)cc2)nc2ccccc21,-0.139
21,Cc1ccc(CN2CCN(c3cccc4[nH]ccc34)CC2)cc1,-60.4
22,Cc1ccc(NC(=O)CSc2nnc(-c3cc(C)on3)o2)cc1,17.1
23,CCOC(=O)N1CCN(Cc2nc(-c3cccs3)no2)CC1,-11.6

row,Compound,"hERG current change (%, negative = inhibition) at 10uM [%]"
1,CCOC(=O)NC1=NCC(C)S1 (centres unmarked),20.2
2,Cc1[nH]c2ccccc2c1CCN(Cc1cccs1)C(=S)NC(C)(C)C,3.32
3,CCCCn1cnc2c(oc3nc4c(cc32)CCCC4)c1=O,-55.5
4,COc1ccc(NS(=O)(=O)/C=C/c2ccc(OC)c(OC)c2)cc1,4.7
5,C[N+]1(C)CC2([N+](=O)[O-])CC=C(Oc3ccccc3)C([N+](=O)[O-])(C2)C1 (centres unmarked),13.8
6,Cc1cccc(NC(=O)CCNS(=O)(=O)c2ccc(Cl)cc2)c1,18.4
7,Cc1cccc(CS(=O)(=O)Cc2ccc(C(=O)NC3CCCC3)o2)c1,-27.7
8,Cc1cccc(C(=O)NCC(c2ccco2)N(C)C)c1 (centres unmarked),11.1
9,CCOC(=O)CSc1nc2sc3c(c2c(=O)n1-c1ccc(OCC)cc1)CCN(C)C3,-53.9
10,NC(=O)c1cc(S(=O)(=O)NC2CCCCC2)co1,-2.46
11,COc1cc2c(cc1OC)C(c1ccccc1)N(C(=O)c1cccc(S(C)(=O)=O)c1)CC2 (centres unmarked),-24
12,CCOc1cc(C(=O)Nc2ccc(N3CCN(C(C)=O)CC3)cc2)cc(OCC)c1OCC,11.1
13,COc1ccc2c(C)c(C(=O)N3CCN(Cc4ccccc4)CC3)oc2c1.Cl,-22.6
14,O=C(CN1C(=O)NC2(CCCC2)C1=O)Nc1ccc(F)c(F)c1F,-3.2
15,Cc1ccc(=O)n(C(C(=O)NCc2ccco2)C(=O)c2ccc(F)cc2)c1 (centres unmarked),-2.69
16,COc1ccc2c(c1)[nH]c1c(=O)n(Cc3ccco3)cnc12,17
17,Cc1nn(-c2ccccc2)nc1C(=O)Oc1cc(C(F)(F)F)nn1-c1ccccc1,0.669
18,CC(C)(C)NC(=O)/C(=C\c1cccnc1)NC(=O)c1ccco1,9.16
19,Cc1ccc(N2C(=O)CC(Sc3nccc(C)n3)C2=O)cc1 (centres unmarked),13.4
20,CC(C)C(NC(=O)/C(=C\c1ccco1)NC(=O)c1ccco1)C(=O)O (centres unmarked),5.53
21,C[C@@H](NC(=O)c1nc[nH]c1C(=O)N[C@@H](Cc1ccccc1)C(=O)OCc1ccccc1)c1ccccc1,3.97
22,O=C(Nc1ccc(Oc2ccccc2)nc1)C1CCN(Cc2ccco2)CC1,-30.8
23,CCC(C)NC(=O)CSc1nnc(-c2ccc(Cl)cc2)n1N (centres unmarked),22.3

row,Compound,"hERG current change (%, negative = inhibition) at 10uM [%]"
1,O=C(CCc1ccccc1)NCCSc1ccccc1,0.33
2,COc1ccc(C)cc1NC(=O)CN(C)S(=O)(=O)c1ccc2c(c1)c(=O)n(C)c(=O)n2C,17
3,Cc1c(C(=O)O)cc(-c2ccccc2)n1Cc1ccccc1,10
4,COc1ccc(N(CC(=O)NCc2ccc(F)cc2)C(=O)CCC(=O)Nc2nccs2)cc1,16.8
5,CC1(C)CC(=O)C2=C(C1)OC1=C(C(=O)CC(C)(C)C1)C2c1ccccc1,16.9
6,O=C(Nc1ccccc1)/C(=C\c1cccs1)NC(=O)c1ccccc1,9.9
7,COc1ccccc1NC(=O)CSc1nnc(Cn2cnc3ccccc32)n1C,-1.02
8,N#CC(C(=O)NCCc1ccccc1)c1nc2ccccc2nc1N1CCOCC1 (centres unmarked),16.2
9,COc1c(C)cc(Br)cc1C(=O)NC(=S)NCc1ccco1,-11.7
10,CCOc1cc(S(=O)(=O)NCCc2ccccc2C)c(OCC)cc1-n1cnnn1,-20.9
11,COC(=O)c1cc(NC(=O)c2c(C)noc2C)ccc1N1CCOCC1,17.6
12,COc1ccccc1C(=O)Nc1cc2c(cc1C(=O)O)OCCCO2,-2.13
13,Cn1c(=O)n(C)c2cc(NC(=O)CCl)ccc21,5.19
14,Cc1cccc(OCC(=O)Nc2ccc3c(c2)OCCO3)c1,-1.06
15,COc1cccc(CC(=O)N2CCC(n3nccc3NC(=O)C3CC3)CC2)c1,32
16,N#C/C(=C\c1ccc(O)c(O)c1)C(=O)NCCc1ccccc1,-3.6
17,O=C(CNC(=O)c1nc[nH]c1C(=O)N1CCc2ccccc2C1)OCc1ccccc1,-15.2
18,Cc1cc(C)n(C(=O)c2c([N+](=O)[O-])cnn2C)n1,6.74
19,CC(C)CNC(=O)COC(=O)c1ccccc1SCC(=O)NCC(C)C,2.44
20,Cn1cccc1CC(=O)N/N=C/C=C/c1ccco1,9.32
